Laboratory results reported in patent US20090305982A1 (Pieris, published 2009).

Legend:
[1] = target: T1, human IL-4 receptor alpha on cells (peripheral blood lymphocytes, primary B cells, TF-1, A549, PBMC) (human, UniProt P24394 26-825); test: flow cytometry, human peripheral blood lymphocytes, 10 µg/ml
T1 construct: Native receptor on human cells; also called IL-4Rα

[2] = target: T2, cynomolgus IL-4 receptor alpha on peripheral blood lymphocytes (cynomolgus); test: flow cytometry, cynomolgus peripheral blood lymphocytes, 10 µg/ml
T2 construct: whole, on cells

[3] = target: T3, biotinylated IL-4 receptor alpha (Peprotech) (human, UniProt P24394 26-232, limits assumed, biotinylated (sites not told)); test: competition ELISA: biotinylated IL-4 receptor alpha (0.5 nM) preincubated with mutein, MAB230-coated plate (competitor MAB230); average (SD) of three
T3 construct: Bought soluble protein; also called IL-4R alpha-bio

[4] = target: T4, IL-4 receptor alpha-Fc (R&D Systems) (human, UniProt P24394 26-232); test: SPR (Biacore), IL-4 receptor alpha-Fc captured via anti-human Fc, mutein injected; average (SD) of five
T4 construct: Bought Fc fusion

[5] = target: T3, biotinylated IL-4 receptor alpha …; test: competition ELISA: 0.5 nM biotinylated IL-4 receptor alpha pre-incubated with the mutein, free receptor caught on coated MAB230, detected with Extravidin-HRP; fit y = 0.5*(-m0+m2-m1+sqrt(-m0..., KD = m1 per legend paragraph 197)); x axis Anticaline/ nM; one representative experiment
[6] = target: T3, biotinylated IL-4 receptor alpha …; test: competition ELISA: 0.5 nM biotinylated IL-4 receptor alpha pre-incubated with the mutein, free receptor caught on coated MAB230, detected with Extravidin-HRP; fit y = 0.5*(-m0+m2-m1+sqrt(-m0..., KD = m1 per legend paragraph 197)); one representative experiment
[7] = target: T3, biotinylated IL-4 receptor alpha …; test: competition ELISA: 0.5 nM biotinylated IL-4 receptor alpha pre-incubated with the mutein, free receptor caught on coated MAB230, detected with Extravidin-HRP; fit y = 0.5*(-m0+m2-m1+sqrt(-m0..., KD = m1 per legend paragraph 197)); x axis Anticaline/ nM; one representative experiment; remark: listed apart in the source
[8] = target: T3, biotinylated IL-4 receptor alpha …; test: competition ELISA: 0.5 nM biotinylated IL-4 receptor alpha pre-incubated with the mutein, free receptor caught on coated MAB230, detected with Extravidin-HRP; fit y = 0.5*(-m0+m2-m1+sqrt(-m0..., KD = m1 per legend paragraph 197)); one representative experiment; remark: listed apart in the source
[9] = target: T3, biotinylated IL-4 receptor alpha …; test: competition ELISA: 0.5 nM biotinylated IL-4 receptor alpha pre-incubated with the mutein, free receptor caught on coated MAB230, detected with Extravidin-HRP; fit y = 0.5*(-m0+m2-m1+sqrt(-m0..., KD = m1 per legend paragraph 197)); x axis Anticaline/ nM; one representative experiment; remark: listed apart in the source
[10] = target: T1, human IL-4 receptor alpha on cells …; test: flow cytometry on human PBMC: lipocalin, anti-CD20-FITC, biotinylated anti-lipocalin antiserum, streptavidin-PE; B cells gated as CD20 positive [C]
VEGF-R2-Fc (R&D Systems) [11] = target: T5, VEGF-R2-Fc (R&D Systems) (Homo sapiens (Human), UniProt P35968 20-764); test: SPR (Biacore), ~500 RU VEGF-R2-Fc captured, mutein injected at 1.5 µM
T5 construct: Bought Fc fusion; not shown: Fc part (detected with anti-human Fc antibody)

VEGF-R2-Fc (R&D Systems) [12] = target: T5, VEGF-R2-Fc (R&D Systems); test: competition ELISA: VEGF-R2-Fc (4 nM) preincubated with mutein, VEGF8-109-coated plate (competitor VEGF8-109)
[13] = target: T4, IL-4 receptor alpha-Fc (R&D Systems); test: SPR (Biacore), ~500 RU IL-4 receptor alpha-Fc, PEGylated mutein at 200, 67 and 22 nM
human serum albumin = target: T6, human serum albumin (human, UniProt P02768 25-609); test: SPR (Biacore), ~850 RU human serum albumin amine-coupled, fusion injected at 500 nM
T6 construct: also called HSA

T5 sequence (P35968 20-764 limits assumed): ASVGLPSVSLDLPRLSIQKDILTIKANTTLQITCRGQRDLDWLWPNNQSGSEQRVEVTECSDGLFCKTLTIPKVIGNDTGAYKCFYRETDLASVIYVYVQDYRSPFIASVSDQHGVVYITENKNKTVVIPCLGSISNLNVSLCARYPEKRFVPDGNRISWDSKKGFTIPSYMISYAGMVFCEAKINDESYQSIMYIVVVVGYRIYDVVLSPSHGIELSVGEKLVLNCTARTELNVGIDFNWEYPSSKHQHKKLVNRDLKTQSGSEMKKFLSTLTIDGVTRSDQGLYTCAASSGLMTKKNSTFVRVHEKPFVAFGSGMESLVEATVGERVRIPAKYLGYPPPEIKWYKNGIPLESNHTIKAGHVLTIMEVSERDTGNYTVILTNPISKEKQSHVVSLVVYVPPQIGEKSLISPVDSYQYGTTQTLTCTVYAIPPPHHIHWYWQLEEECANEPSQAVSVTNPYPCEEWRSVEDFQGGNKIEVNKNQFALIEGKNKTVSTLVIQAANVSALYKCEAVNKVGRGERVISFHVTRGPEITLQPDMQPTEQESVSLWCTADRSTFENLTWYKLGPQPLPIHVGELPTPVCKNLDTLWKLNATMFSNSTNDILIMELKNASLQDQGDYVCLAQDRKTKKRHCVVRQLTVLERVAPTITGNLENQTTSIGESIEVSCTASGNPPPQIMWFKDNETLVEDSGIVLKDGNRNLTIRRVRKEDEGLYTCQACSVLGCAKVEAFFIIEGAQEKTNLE

Row | Binder | % Positive [1] | MFI [1] | % Positive [2] | MFI [2] | Kd [3] | Kd [4] | koff [4] | kon [4] | Kd (VEGF-R2-Fc (R&D Systems) [11]) | koff (VEGF-R2-Fc (R&D Systems) [11]) | kon (VEGF-R2-Fc (R&D Systems) [11]) | Ki (VEGF-R2-Fc (R&D Systems) [12]) | further results
1 | human tear lipocalin mutein S148.3 J14AM2C2 (designed binder, C-terminal Strep-tag II is part of the characterized protein; also called S148.3 AM2C2) ASDEEIQDVSGTWYLKAMTVDSRCPRAYYESVTPMTLTTLEGGNLEAKFTLQRRGRWQEGKLVLEKTDEPGKYTASGGRHVAYIIRSHVKDHYIFYSEGLCPGQPVPGVWLVGRDPKNNLEALEDFEKAAGARGLSTESILIPRQSETSSPGSA | 76% | 9.6 | 68% | 6.8 | 0.0407 nM | 0.0179 nM | 4.2e-05 s⁻¹ | 2.3e+06 M⁻¹ s⁻¹ | – | – | – | – | Kd [5]: 0.0371 nM
2 | human tear lipocalin mutein S191.4 K19 (designed binder, C-terminal Strep-tag II is part of the characterized protein) ASDEEIQDVSGTWYLKAMTVDSRCPRAHYSSVTPMTLTTLEGGNLEAKLTLQRAGRWQEGKIVLEKTDEPGKYTASGGRHVAYIIRSHVKDHYIFYSEGLCPGQPVPGVWLVGRDPKNNLEALEDFEKAAGARGLSTESILIPRQSETSSPGSA | 72% | 8.9 | 65% | 6.6 | 0.12 nM | 0.0201 nM | 3.6e-05 s⁻¹ | 1.7e+06 M⁻¹ s⁻¹ | – | – | – | – | Kd [6]: 0.104 nM
3 | human tear lipocalin mutein S191.5 H16 (designed binder, C-terminal Strep-tag II is part of the characterized protein) ASDEEIQDVSGTWYLKAMTVDSRCPRAYYDSVTPMTLTTLEGGNLEAKGTLQRKGRPQEMKLVLEKTDEPGKYTASGGRHVAYIIRSHVKDHYIFYSEGLCPGQPVPGVWLVGRDPKNNLEALEDFEKAAGARGLSTESILIPRQSETSSPGSA | 72% | 9 | 42% | 4.1 | 0.0617 nM | 0.0243 nM | 4.1e-05 s⁻¹ | 1.7e+06 M⁻¹ s⁻¹ | – | – | – | – | Kd [7]: 0.0487 nM
4 | human tear lipocalin mutein S191.5 K12 (designed binder, C-terminal Strep-tag II is part of the characterized protein) ASDEEIQDVSGTWYLKAMTVDSRCPRAYYKSVTPMTLTTLEGGNLEAKFTAQRNGRWQELKLVLEKTDEPGKYAASGGRHVAYIIRSHVKDHYIFYSEGLCPGQPVPGVWLVGRDPKNNLEALEDFEKAAGARGLSTESILIPRQSETSSPGSA | 74% | 9.7 | 78% | 9 | 0.0253 nM | 0.0135 nM | 7.7e-05 s⁻¹ | 5.8e+06 M⁻¹ s⁻¹ | – | – | – | – | Kd [8]: 0.0372 nM
5 | human tear lipocalin mutein S197.8 D22 (designed binder, C-terminal Strep-tag II is part of the characterized protein) ASDEEIQDVSGTWYLKAMTVDSRCPRAYYGSVTPMTLTTLEGGNLEAKLTLQRSGRWQESKVVLEKTDEPGKYTASGGRHVAYIIRSHVKDHYIFYSEGLCPGQPVPGVWLVGRDPKNNLEALEDFEKAAGARGLSTESILIPRQSETSSPGSA | 72% | 9.3 | 70% | 7.1 | 0.14 nM | 0.0558 nM | 6.3e-05 s⁻¹ | 1.1e+06 M⁻¹ s⁻¹ | – | – | – | – | Kd [9]: 0.107 nM
6 | wildtype tear lipocalin (gene product of pTLPC26) (other, human, Control; also called human tear lipocalin wt) ASDEEIQDVSGTWYLKAMTVDREFPEMNLESVTPMTLTTLEGGNLEAKVTMLISGRSQEVKAVLEKTDEPGKYTADGGKHVAYIIRSHVKDHYIFYSEGELHGKPVPGVWLVGRDPKNNLEALEDFEKAAGARGLSTESILIPRQSETSSPGSA | – | – | – | – | – | – | – | – | – | – | – | – | binding result [10]: no binding
7 | human tear lipocalin mutein S197.7-N1 (designed binder) ASDEEIQDVSGTWYLKAMTVDSIFPSGRIYSVTPMTLTTLEGGNLEAKVTMEFRGRSQEVKAVLEKTDEPGKYTASGGEHVAYIIRSHVKDHYIFYSEGLAVRTPVPGVWLVGRDPKNNLEALEDFEKAAGARGLSTESILIPRQSETSSPGSA | – | – | – | – | – | – | – | – | 5.5 nM | 0.00011 s⁻¹ | 21000 M⁻¹ s⁻¹ | 12 nM | –
8 | human tear lipocalin mutein S175.4 H11 (designed binder) ASDEEIQDVSGTWYLKAMTVDSIFPSGRIYSVTPMTLTTLEGGNLEAKVTMKFRGRSQEVKAVLEKTDEPGKYTASGGEHVAYIIRSHVKDHYIFYSEGLAVGTPVPGVWLVGRDPKNNLEALEDFEKAAGARGLSTESILIPRQSETSSPGSA | – | – | – | – | – | – | – | – | 35 nM | 0.00036 s⁻¹ | 9000 M⁻¹ s⁻¹ | 12.9 nM | –
9 | human tear lipocalin mutein S197.2-I18 (designed binder) ASDEEIQDVSGTWYLKAMTVDSIFPSGRIYSVTPMTLTTLEGGNLEAKVTMAFRGRSQEMKAVLEKTDEPGKYTASGGEHVAYIIRSHVKDHYIFYSEGLAVGTPVPGVWLVGRDPKNNLEALEDFEKAAGARGLSTESILIPRQSETSSPGSA | – | – | – | – | – | – | – | – | 3.1 nM | 8.3e-05 s⁻¹ | 27000 M⁻¹ s⁻¹ | 5.5 nM | –
10 | human tear lipocalin mutein S197.2-L22 (designed binder) ASDEEIQDVSGTWYLKAMTVDSIFPSGRIYSVTPMTLTTLEGGNLEAKVTMEFRGRSQEVKAVLEKTGEPGKYTAPGGEHVAYIIRSHVKDHYIFYSEGLAVGTPVPGVWLVGRDPKNNLEALEDFEKAAGARGLSTESILIPRQSETSSPGSA | – | – | – | – | – | – | – | – | – | 2.4e-05 s⁻¹ | 12000 M⁻¹ s⁻¹ | 3.5 nM | –
11 | human tear lipocalin mutein S197.2-N24 (designed binder) ASDEEIQDVSGTWYLKAMTVDSIFPSGRIYSVTPMTLTTLEGGNLEAKVTMEFRGRSQKVKAVLEKTDEPGKYTASGGEHVAYIIKSHVKDHYIFYSEGLAVETPVPGVWLVGRDPKNNLEALEDFEKAAGARGLSTESILIPRQSETSSPGSA | – | – | – | – | – | – | – | – | 2.7 nM | 6.4e-05 s⁻¹ | 24000 M⁻¹ s⁻¹ | 2.3 nM | –
12 | human tear lipocalin mutein S197.7-B6 (designed binder) ASDEEIQDVSGTWYLKAMTVDSIFPSGRIYSVTPMTLTTLEGGNLEAKVTMEFRGRSQEVKAVLEKTDEPGRYTASGGEHVAYITRSHVKDHYIFYSEGLAVKTPVPGVWLVGRDPKNNLEALEDFEKAAGARGLSTESILIPRQSETSSPGSA | – | – | – | – | – | – | – | – | 6 nM | 0.00013 s⁻¹ | 23000 M⁻¹ s⁻¹ | 3.8 nM | –
13 | PEGylated mutein S148.3 J14 (designed binder, chain 1 pos 138 (Cys at mature tear lipocalin position 131): thiol coupled to linear polyethylene glycol maleimide, average 20 kDa, written C, also called S148.3 J14-PEG) DASMTGGQQMGASDEEIQDVSGTWYLKAMTVDSRCPRAYYGSVTPMTLTTLEGGNLEAKVTMQRIGRSQEVKAVLEKTDEPGKYTASGGRHVAYIIRSHVKDHYIFYSEGLCPGQPVPGVWLVGRDPKNNLEALEDFCKAAGARGLSTESILIPRQSETSSPGSAWSHPQFEK | – | – | – | – | – | – | – | – | – | – | – | – | Kd [13]: 30 nM; koff [13]: 0.00493 s⁻¹; kon [13]: 164000 M⁻¹ s⁻¹
14 | wildtype Tlc-ABD (other, also called TLPC51) ASDEEIQDVSGTWYLKAMTVDREFPEMNLESVTPMTLTTLEGGNLEAKVTMLISGRSQEVKAVLEKTDEPGKYTADGGKHVAYIIRSHVKDHYIFYSEGELHGKPVPGVWLVGRDPKNNLEALEDFEKAAGARGLSTESILIPRQSETSSPGSAGAVDANSLAEAKVLANRELDKYGVSDYYKNLINNAKTVEGVKALIDEILAALPSAWSHPQFEK | – | – | – | – | – | – | – | – | – | – | – | – | Kd (human serum albumin): ~20 nM
